# From PubChem BioAssay AID651820 (National Center for Advancing Translational Sciences (NCATS), 2012)
# About 12,000 (3.5%) of roughly 340,000 compounds were called active. Inconclusive results, whose numbers are uncertain, are shown with a selection of clear calls. Calls follow the shape of the dose curve; as a rule, active = well fitted inhibition curve with a large enough effect; inconclusive = small, poorly fitted or top-dose-only effect, or another doubt; inactive = no such curve, though single readings can be large or run the other way. No potency is given beside an inconclusive call; the fits are too rough.
# Experiment: qHTS Assay for Inhibitors of Hepatitis C Virus (HCV)
# Settings: Huh7.5.1 HCVcc-Cre (HCVcc is cell-culture hepatitis C virus) infection, luciferase reporter, 44 h; activity change, negative = inhibition: at 41.8 µM (top of the series)
# Outline: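 Reporter virus HCVcc-Cre (~0.5 moi) infects cells exposed to compound; seeding density 1,000 cells/well with 4 h settling beforehand. Luminescence, 15 sec read, taken 44 h post-infection following a 15 min RT substrate incubation.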
# % is scaled to controls: 0 for no effect and ±100 for the full control effect; potency is read from the fitted curve at half-maximal effect; tags tell the direction and shape of the fitted curve.
SMILES,Potency,"activity change, negative = inhibition"
O=C(NCc1ccccc1)c1cccc(NC(=O)C2CCCC2)c1,"inconclusive [inhibitor, partial curve, poor fit]",
CNCC(O)Cn1c2c(c3ccccc31)CCCC2 (stereo not given),active: 10 µM,
O=C(CSc1ccccc1)Nc1ccc2c(c1)C(=O)NC2=O,inactive,
NC(N)=Nc1ccc2[nH]c3c(c2c1)C[C@@]1(O)[C@H]2Cc4ccc(O)c5c4[C@@]1(CCN2CC1CC1)[C@H]3O5,"inconclusive [inhibitor, single point]",
COc1cc(Nc2ccc(S(=O)(=O)N3CCN(C)CC3)cc2[N+](=O)[O-])cc(OC)c1,"inconclusive [inhibitor, partial curve, poor fit]",
O=c1oc2cc(O)ccc2c2ccccc12,"inconclusive [inhibitor, single point]",
COc1cccc(/C=C2\SC(N)=NC2=O)c1OS(=O)(=O)c1ccccc1,inactive,
COc1ccccc1N(CC(=O)NCCSCc1cccc(C)c1)S(=O)(=O)c1ccccc1,active: 12.6 µM,
Cc1ccc(SCC(=O)OC(C)C(=O)Nc2ccc(S(N)(=O)=O)cc2)cc1C (stereo not given),inactive,
C/C(=N\Nc1ccccc1)c1cccs1,inactive,
Cc1nc(Nc2cccc(O)c2)c2oc3ccccc3c2n1,active: 12.6 µM,
O=C(NCCCN1CCOCC1)c1cc(-c2ccc(Cl)s2)nc2ccccc12,"inconclusive [inhibitor, single point]",
CCCCn1c(CN2CCN(c3cccc(Cl)c3)CC2)nc2c1c(=O)[nH]c(=O)n2C,"inconclusive [inhibitor, full curve]",
COc1ccccc1CN1C[C@@H]2C[C@@H](c3ccccc3C)N3CCC[C@@]23C1=O,"inconclusive [inhibitor, single point]",
CCOC(=O)Cc1csc(NC(=O)CC)n1,inactive,
CCCOC(=O)N[C@@H]1C(=O)N2C(C(=O)OCCC)=C(C)CS[C@H]12,"inconclusive [inhibitor, single point]",
COCCOC(=O)C1=C(C)NC(C)=C(C(=O)OC(C)C)C1c1cccc([N+](=O)[O-])c1 (stereo not given),"inconclusive [inhibitor, single point]",
COc1cc2c(cc1OC)[C@@H](NC(=O)C(C)C)[C@H](OCc1ccccc1)C2,"inconclusive [inhibitor, single point]",
Cc1cc(N2CCN(C)CC2)ccc1NC(=O)c1cccc(S(=O)(=O)N2CCc3ccccc3C2)c1,"inconclusive [inhibitor, partial curve, poor fit]",
COc1cc(NC(=O)COC(=O)CNC(=O)c2ccc(C)cc2)c(C)cc1[N+](=O)[O-],"inconclusive [inhibitor, single point]",
COc1ccc(NC(=S)N(CCCN2CCC(C)CC2)Cc2cccs2)cc1Cl,"inconclusive [inhibitor, partial curve]",
NCCS,active: 0.562 µM,
Cn1nc(C(=O)OCCN2C(=O)c3ccccc3C2=O)c2ccccc2c1=O,"inconclusive [inhibitor, partial curve]",
CC(C)CC(COCc1ccc(Cl)cc1)N1CCN(C(=O)c2ccc(C(F)(F)F)cc2)CCC1=O (stereo not given),"inconclusive [inhibitor, single point]",

SMILES,Potency,"activity change, negative = inhibition"
Cn1cc(/C=C(\NC(=O)c2ccccc2Cl)C(=O)N2CCOCC2)c2ccccc21,inactive,
Cc1onc(-c2ccccc2)c1CNS(=O)(=O)c1ccccc1[N+](=O)[O-],inactive,
O=C(c1ccco1)N1CCN(Cc2csc(-c3ccccc3Cl)n2)CC1,"inconclusive [inhibitor, single point]",
Cc1ccc(-n2c(SCC(=O)NCc3ccco3)nc3sc4c(c3c2=O)CC(C)(C)SC4)cc1,inactive,
COc1ccc(-c2csc(C3=C(O)CN(CCCN4CCCC4=O)C3=N)n2)cc1OC,inactive,
CC1=C(C(=O)NC2CCCC(C)C2C)C2(CCCCC2)OC1=O (stereo not given),inactive,
N#CCC(=O)N/N=C/c1cc(Br)ccc1OCc1cccc2ccccc12,"inconclusive [inhibitor, partial curve]",
COc1cccc(N2C(=O)C3CCCN3C2=S)c1 (stereo not given),"inconclusive [inhibitor, full curve, poor fit]",
Cc1ccc(CNC(=O)C2CCC(=O)N2Cc2ccc(C)cc2)cc1 (stereo not given),inactive,
O=C(CCCc1nc2ccccc2s1)Nc1nccs1,inactive,
O=C(OCC(=O)c1c[nH]c2ccccc12)c1cc2ccccc2cc1O,"inconclusive [inhibitor, full curve, poor fit]",
CN1C2CCC1CC(NC(=O)CSCc1ccc(Cl)cc1Cl)C2 (stereo not given),"inconclusive [inhibitor, single point]",
Cc1oc(CSCC2CCCO2)cc1C(=O)O (stereo not given),inactive,
Cc1ccc(OCC(=O)N/N=C/c2cn[nH]c2-c2ccc(Cl)c(Cl)c2)cc1,"inconclusive [inhibitor, single point]",
C[N+]12CCC(CC1)C(=C(c1ccccc1)c1ccccc1)C2,"inconclusive [inhibitor, single point]",
COc1ccc(S(=O)(=O)n2cnc3cc(C)c(C)cc32)cc1C,"inconclusive [inhibitor, single point]",
CN(C(=O)COC(=O)Cc1c(Cl)cccc1Cl)c1c(N)n(Cc2ccccc2)c(=O)[nH]c1=O,"inconclusive [inhibitor, partial curve, poor fit]",
CCN1CCN(c2nc(S(=O)(=O)c3ccc(C)cc3)c(Cl)s2)CC1,"inconclusive [inhibitor, partial curve, poor fit]",
CC(=O)c1ccc(OCCCC(=O)NCCc2ccccc2)cc1,inactive,
COCCCNC(=O)c1ccc(N(C)S(C)(=O)=O)cc1,inactive,
O=c1oc2ccccc2nc1/C=C(O)/C=C\c1ccccc1,"inconclusive [inhibitor, partial curve]",
O=S(=O)(c1ccc(C(F)(F)F)cc1)N1CCN(CCOc2ccccc2)CC1,,inconclusive: -72.7% [inhibitor]
COc1ccc(/C(C)=N/NC(=O)Cn2nc([N+](=O)[O-])cc2C)cc1,inactive,
Cc1cccc(NC(=S)NCc2ccco2)c1C,"inconclusive [inhibitor, partial curve]",

SMILES,Potency,"activity change, negative = inhibition"
COC(=O)C1=C(c2ccc(Cl)c(C(F)(F)F)c2)C[C@@H]2CC[C@H]1N2C(=O)NCCOc1ccccc1Cl,active: 10 µM,
COC(=O)c1cc(C)nc2c1C(=O)C(=O)C=C2N1CCOCC1,active: 2.51 µM,
COc1ccc(-c2nc3c(Br)c(N)c(Br)cc3o2)cc1,"inconclusive [inhibitor, partial curve]",
CCn1cc([N+](=O)[O-])c(C(=O)N2CCCC2)n1,inactive,
CC(CC(=O)N1CCN(S(=O)(=O)c2ccc([N+](=O)[O-])cc2)CC1)c1ccccc1 (stereo not given),"inconclusive [inhibitor, partial curve]",
CCc1ccc(C(=O)NNc2ccc(Cl)cc2)cc1,inactive,
COC(=O)[C@@H](N)Cc1ccc(O)c(O)c1,"inconclusive [inhibitor, single point]",
CCCn1c(N)c(C(=O)COc2ccc(Br)cc2F)c(=O)n(C)c1=O,"inconclusive [inhibitor, partial curve]",
COc1ccc(-c2csc(NC(=O)C3CC(=O)N(Cc4ccco4)C3)n2)cc1 (stereo not given),"inconclusive [inhibitor, single point]",
O=C(Nc1cccc(S(=O)(=O)NC2=NCCC2)c1)c1ccc(OC(F)F)cc1,"inconclusive [inhibitor, single point]",
COc1ccccc1NC(=O)C1CCCN(S(=O)(=O)c2ccccc2)C1 (stereo not given),"inconclusive [inhibitor, single point]",
CCOc1ccc2ncc(S(=O)(=O)c3ccc(C)cc3)c(N3CCC4(CC3)OCCO4)c2c1,"inconclusive [inhibitor, single point]",
O=C(c1ccc2c(=O)n(CCc3ccccc3)c(=O)[nH]c2c1)N1CCN(c2ccccc2)CC1,inactive,
COc1ccc(OC)c(NC(=O)C2CC(=O)N(c3ccc(Br)cc3)C2)c1 (stereo not given),"inconclusive [inhibitor, partial curve]",
CN(c1ccccc1)S(=O)(=O)c1ccc(C(=O)N2CCN(c3ccccc3Cl)CC2)cc1,"inconclusive [inhibitor, single point]",
Fc1ccc(CNC(=S)Nc2cccc(Cl)c2)cc1,"inconclusive [inhibitor, single point]",
COc1ccc(OC)c(C2Nc3ccccc3NC3=C2C(=O)CC(C)(C)C3)c1 (stereo not given),inactive,
CC(=O)c1ccc(N2CCN(C(=O)c3nn(C)c4c3CS(=O)(=O)c3ccccc3-4)CC2)cc1,"inconclusive [inhibitor, single point]",
CNc1cc([N+](=O)[O-])ccc1N/C=C/C(=O)c1cccs1,"inconclusive [inhibitor, single point]",
O=C(CN(Cc1ccccc1F)S(=O)(=O)c1ccc(Cl)cc1)NCCC1=CCCCC1,inactive,
CCCCn1c(N)c(N(CC(C)C)C(=O)C2CC(=O)N(c3ccc4c(c3)OCCO4)C2)c(=O)[nH]c1=O (stereo not given),"inconclusive [inhibitor, single point]",
CN(C)S(=O)(=O)c1cccc(NC(=O)c2ccc3c(c2)S(=O)(=O)N=C2CCCCCN23)c1,"inconclusive [inhibitor, partial curve, poor fit]",
